The whole screen tested about 310,000 compounds, of which about 2,200 (0.71%) showed an effect of 50% or more. The effect is printed as a negative number. This is one part of the list.
Each compound was assayed against human ether-à-go-go-related gene (hERG) potassium channel (human, UniProt Q12809) (assay: primary screen, population patch clamp on CHO cells stably expressing hERG).
Chain of human ether-à-go-go-related gene (hERG) potassium channel (Q12809 whole entry, looked up): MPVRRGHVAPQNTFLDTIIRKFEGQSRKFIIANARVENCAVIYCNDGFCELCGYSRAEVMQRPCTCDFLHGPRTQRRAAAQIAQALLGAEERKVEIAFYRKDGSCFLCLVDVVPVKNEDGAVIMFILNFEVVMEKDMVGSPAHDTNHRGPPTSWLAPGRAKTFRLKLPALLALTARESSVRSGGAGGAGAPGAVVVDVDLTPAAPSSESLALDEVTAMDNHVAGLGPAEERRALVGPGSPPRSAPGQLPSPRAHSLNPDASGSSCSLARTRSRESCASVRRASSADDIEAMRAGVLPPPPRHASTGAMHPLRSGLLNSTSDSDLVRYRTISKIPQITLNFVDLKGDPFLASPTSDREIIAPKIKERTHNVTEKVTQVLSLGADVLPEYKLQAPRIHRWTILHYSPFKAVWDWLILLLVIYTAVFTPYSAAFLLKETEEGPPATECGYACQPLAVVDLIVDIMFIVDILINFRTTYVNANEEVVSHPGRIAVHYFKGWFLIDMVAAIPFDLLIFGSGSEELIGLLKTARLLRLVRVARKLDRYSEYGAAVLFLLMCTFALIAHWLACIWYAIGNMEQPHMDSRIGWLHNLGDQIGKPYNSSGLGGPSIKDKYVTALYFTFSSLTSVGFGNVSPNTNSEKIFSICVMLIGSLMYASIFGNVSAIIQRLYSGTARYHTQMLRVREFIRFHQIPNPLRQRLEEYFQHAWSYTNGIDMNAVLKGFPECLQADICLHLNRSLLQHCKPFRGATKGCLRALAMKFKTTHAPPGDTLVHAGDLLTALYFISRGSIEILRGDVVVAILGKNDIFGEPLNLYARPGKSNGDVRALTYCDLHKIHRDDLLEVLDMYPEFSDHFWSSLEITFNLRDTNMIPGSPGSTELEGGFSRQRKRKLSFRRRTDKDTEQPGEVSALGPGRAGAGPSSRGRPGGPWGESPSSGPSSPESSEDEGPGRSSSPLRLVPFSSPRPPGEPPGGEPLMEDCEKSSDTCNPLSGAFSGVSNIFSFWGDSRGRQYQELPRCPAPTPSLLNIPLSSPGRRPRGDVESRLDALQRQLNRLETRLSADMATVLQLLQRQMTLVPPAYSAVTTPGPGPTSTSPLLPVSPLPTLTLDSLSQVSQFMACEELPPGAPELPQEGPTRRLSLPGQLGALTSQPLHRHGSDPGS

Compared with `O=C(CSC1=Nc2ccccc2C2=NC(CC(=O)NCc3ccco3)C(=O)N12)NCC1CCCO1` (stereo not shown), `O=C(NCC1CCCO1)C(c1ccco1)N(Cc1ccc(F)cc1)C(=O)CN1C(=O)c2ccccc2S1(=O)=O` (stereo not shown) is higher in “hERG current change (%, negative = inhibition) at 1uM” value: 6.38% for the first, 8.75% for the second.

First: CCOC(=O)c1c(N)sn(-c2ccccc2)c1=S
Second: COc1ccc(-n2nc(C(N)=O)nc2-c2ccccc2)cc1
The “hERG current change (%, negative = inhibition) at 1uM” value of the first is higher: 7.27% for the first, -3.8% for the second.

Going from `Cn1c(=O)c2sccc2n(Cc2ccccc2)c1=O` to `CCC(=O)N1N=C(c2c(O)n(CCc3ccccc3)c(=O)[nH]c2=O)CC1c1ccc(OC)c(OC)c1` (stereo not shown), the “hERG current change (%, negative = inhibition) at 1uM” value rises from 5.69% to 24.2%.

Compared with `COc1ccc(Cl)c(N2CCN(CCCNC(=O)Nc3ccc(C)cc3)CC2)c1`, `COc1ccc(N2CCN(C(=O)C(OC(C)=O)c3ccccc3)CC2)cc1` (stereo not shown) is higher in “hERG current change (%, negative = inhibition) at 1uM” value: -24.5% for the first, -7.6% for the second.

First: CC(=O)Nc1cc(-c2nc3ccccc3o2)ccc1Cl
Second: O=C(CSc1nc2ccccc2[nH]1)Nc1ccc(F)c(F)c1
The “hERG current change (%, negative = inhibition) at 1uM” value of the first is higher: 8.99% for the first, 0.944% for the second.

First: COc1ccc(NS(=O)(=O)c2ccc(Cl)c(N)c2)cc1Br
Second: COc1ccc(NC(=O)c2ccc(Cl)c(S(=O)(=O)NCC3CCCO3)c2)c(OC)c1 (stereo not shown)
The “hERG current change (%, negative = inhibition) at 1uM” value of the first is higher: 9.47% for the first, 9.43% for the second.

Going from `O=C1COc2ccc(N3C(=O)C=CC3=O)cc2N1` to `O=C(Nc1nc2ccccc2s1)c1cccc(N2C(=O)CCC2=O)c1`, the “hERG current change (%, negative = inhibition) at 1uM” value rises from 7.02% to 9.87%.

First: Cc1ccc(C(=O)NC(C)c2ccc(F)cc2)cc1 (stereo not shown)
Second: COc1ccc(NC(=O)CC2C(=O)N(C)C(=S)N2CCc2ccc(F)cc2)cc1 (stereo not shown)
The “hERG current change (%, negative = inhibition) at 1uM” value of the first is higher: 18.6% for the first, 5.78% for the second.

Going from `CCOC(=O)c1cnc(SCC(=O)NCc2ccco2)nc1N` to `CCOc1ccc2nc(C)cc(C(=O)O)c2c1`, the “hERG current change (%, negative = inhibition) at 1uM” value falls from 8.46% to 7.96%.

Compared with `O=C1CCCN1CCCNc1ccc2nnc(CCC(=O)N3CCN(c4ccc(F)cc4)CC3)n2n1`, `O=C1CCCN1CCCNc1ncnc2c1cnn2-c1ccc(Cl)cc1` is lower in “hERG current change (%, negative = inhibition) at 1uM” value: 14% for the first, -1.84% for the second.

Going from `Cc1cccc(OCC(=O)OC(C)C(=O)Nc2ccc(Cl)cn2)c1` (stereo not shown) to `Cc1cc(OCC(=O)NNC(=O)c2cccc(F)c2)ccc1Cl`, the “hERG current change (%, negative = inhibition) at 1uM” value rises from 2.24% to 11.7%.

Compared with `C/C(=N\Nc1ccc([N+](=O)[O-])cc1[N+](=O)[O-])C(C)(C)C(C(=O)O)C(=O)O`, `COC(=O)c1ccc(CO/N=C/c2cccc([N+](=O)[O-])c2)cc1` is higher in “hERG current change (%, negative = inhibition) at 1uM” value: 1.96% for the first, 11.2% for the second.

Going from `O=C(Nc1cccc(Cl)c1Cl)C1CCCO1` (stereo not shown) to `COc1cccc(NC(=O)C2=COCCO2)c1`, the “hERG current change (%, negative = inhibition) at 1uM” value rises from 9.21% to 17.6%.

First: Cc1ccc(S(=O)(=O)Nc2cccc(N(C)S(C)(=O)=O)c2)cc1[N+](=O)[O-]
Second: Cc1ccc(NC(=O)CN2C(=O)CCS(=O)(=O)c3ccccc32)cc1Cl
The “hERG current change (%, negative = inhibition) at 1uM” value of the first is lower: 9.68% for the first, 13.7% for the second.

Compared with `Brc1cccc(OCCN2CCCCC2)c1.O=C(O)C(=O)O`, `O=C(/C=C/c1ccccc1)OCC(=O)N1CCCC1` is higher in “hERG current change (%, negative = inhibition) at 1uM” value: -0.584% for the first, 9.83% for the second.

Going from `Cc1ccc(C)c2c1cc(C)c1nnc(SCC(=O)c3cccs3)n12` to `CCn1c(SCC(=O)c2ccc(NC(C)=O)c(OC)c2)nnc1-c1ccc(NS(C)(=O)=O)cc1`, the “hERG current change (%, negative = inhibition) at 1uM” value rises from 5.13% to 18.4%.

First: Cc1ccc2c(c1)C1C3CCC(C3)C1S(=O)N2 (stereo not shown)
Second: Cc1ccc(NC(=O)CN2CCOCC2)c(Br)c1
The “hERG current change (%, negative = inhibition) at 1uM” value of the first is higher: 13.3% for the first, 6.9% for the second.

First: NC(=O)c1nsc(C(=O)N(c2cccc(F)c2)C(C(=O)NCC2CCCO2)c2ccc3ncccc3c2)c1N (stereo not shown)
Second: CCN(c1ccc(OC)cc1)S(=O)(=O)c1nnc(NC(=O)c2ccccc2Cl)s1
The “hERG current change (%, negative = inhibition) at 1uM” value of the first is lower: 3.23% for the first, 12.5% for the second.

Compared with `CC(Sc1nncn1C)C(=O)Nc1cc(C(F)(F)F)ccc1N1CCOCC1` (stereo not shown), `O=C(CCn1c(=O)oc2ccccc21)Nc1ccc(N2CCOCC2)cc1` is higher in “hERG current change (%, negative = inhibition) at 1uM” value: -0.55% for the first, 19.9% for the second.

First: Cc1ccc(-c2nc3sc(C#N)c(N)n3c(=O)c2C#N)cc1
Second: COC(=O)c1ccc(-c2cc3onc(-c4ccccc4)c3c(=O)n2C)cc1
The “hERG current change (%, negative = inhibition) at 1uM” value of the first is higher: 11.8% for the first, 8.56% for the second.

Compared with `COC(=O)c1cc(S(=O)(=O)N2CCC(C)CC2)ccc1F`, `CC1Cc2cc(S(=O)(=O)N3CCC(C(N)=O)CC3)ccc2N1C(=O)C1CC1` (stereo not shown) is higher in “hERG current change (%, negative = inhibition) at 1uM” value: -12.9% for the first, 15.5% for the second.

Compared with `C=CCOc1ccc(/C=C/C(=O)OCC(=O)NCC2CCCCC2)cc1`, `COc1ccc(C)cc1NC(=O)CCC(=O)Nc1nnc(C2CCCCC2)s1` is higher in “hERG current change (%, negative = inhibition) at 1uM” value: 4.57% for the first, 21.5% for the second.

First: Cc1ccccc1CN1CCC(N2CCC(C(=O)NCC3CCCO3)CC2)CC1 (stereo not shown)
Second: Cc1ccc2c(c1)nnn2C1CCN(CC(=O)NCCc2ccccc2)CC1
The “hERG current change (%, negative = inhibition) at 1uM” value of the first is higher: 8.01% for the first, -8.03% for the second.

Compared with `CCOCCOC(=O)NCCCCCCNC(=O)OCCOCC`, `CCOC(=O)c1ccc(COC(=O)CNC(=O)CNC(=O)Cc2ccccc2)cc1` is lower in “hERG current change (%, negative = inhibition) at 1uM” value: 13.3% for the first, -40.4% for the second.

Going from `COC1=C/C(=C/c2c(N)n3c(nc2=O)sc2cc(S(C)(=O)=O)ccc23)C=CC1=O` to `CC(=O)c1sc(NC(=O)CS(=O)(=O)c2ccccc2)nc1C`, the “hERG current change (%, negative = inhibition) at 1uM” value falls from 18.9% to -9.05%.

Going from `CCOP(=O)(OCC)c1ccc(O)cc1` to `CC(C)(O)C#Cc1ccc(C(=O)NCc2cccs2)s1`, the “hERG current change (%, negative = inhibition) at 1uM” value falls from 11.3% to 2.44%.

Going from `CC(=O)c1ccc(NC(=O)C2C3C=CC(C3=C(c3ccccc3)c3ccccc3)C2C(=O)O)cc1` (stereo not shown) to `O=C(O)c1cc(S(=O)(=O)N(Cc2ccccc2)c2ccccc2Cl)ccc1Cl`, the “hERG current change (%, negative = inhibition) at 1uM” value rises from 12% to 16.7%.

Compared with `c1ccc(CSc2nc3ncncc3[nH]2)cc1`, `COc1ccnc(CSC(N)=Nc2ccccc2C(F)(F)F)c1` is lower in “hERG current change (%, negative = inhibition) at 1uM” value: 7.34% for the first, 5.22% for the second.

Compared with `CC1CCCC(C)N1C(=O)COC(=O)c1cc(Br)ccc1Cl` (stereo not shown), `O=C(COC(=O)c1ccccc1Cc1ccccc1)NC1CCS(=O)(=O)C1` (stereo not shown) is lower in “hERG current change (%, negative = inhibition) at 1uM” value: 17% for the first, 7.09% for the second.

Going from `COc1ccccc1N1C(=O)c2ccccc2NC1c1ccncc1` (stereo not shown) to `COc1cccc(C2CC(c3ccccc3C)n3nc(N)nc3N2)c1` (stereo not shown), the “hERG current change (%, negative = inhibition) at 1uM” value rises from -8.11% to 7.31%.

First: CC1CCC(NC(=O)c2nn(C)c3c2CS(=O)(=O)c2ccccc2-3)CC1 (stereo not shown)
Second: O=C(Nc1nnc(S(=O)(=O)N2CCCCCC2)s1)c1ccccc1Cl
The “hERG current change (%, negative = inhibition) at 1uM” value of the first is higher: 16.9% for the first, 0.0815% for the second.

First: Cl.N#C/C(=C/c1cc(Cl)c(O)c(Cl)c1)C(=O)N1CCCCC1
Second: O=C(C1CCN(S(=O)(=O)c2ccc(Br)s2)CC1)N1CCCCC1
The “hERG current change (%, negative = inhibition) at 1uM” value of the first is higher: 11.2% for the first, 7.43% for the second.

Going from `O=C(CN(Cc1ccccc1)C(=O)c1csnn1)NCCc1ccccc1` to `O=C(NCc1cccnc1)c1ccc(CS(=O)(=O)Cc2ccc(Cl)cc2)o1`, the “hERG current change (%, negative = inhibition) at 1uM” value rises from -2.12% to 3.03%.

Compared with `Nc1ccccc1Oc1c(F)c(F)c(Oc2ccccc2N)c(F)c1F`, `CC(C)(c1ccccc1)c1ccc(OCCN)cc1.Cl` is lower in “hERG current change (%, negative = inhibition) at 1uM” value: 22.6% for the first, 11.7% for the second.

First: CC(=O)Nc1ccc(NC(=O)C(C)OC(=O)c2c(NC(C)=O)sc(C)c2C)cc1 (stereo not shown)
Second: Cc1ccc(/C=N/NC(=O)CNC(=O)c2cccs2)cc1
The “hERG current change (%, negative = inhibition) at 1uM” value of the first is higher: 12.8% for the first, 12.2% for the second.

First: CC(C)c1cc(CNC(=O)C2CCC(=O)N(CCc3ccc(Cl)cc3)C2)on1 (stereo not shown)
Second: CC(C)N(C(=O)Cn1cnc2c(cnn2-c2ccccc2Cl)c1=O)C(C)C
The “hERG current change (%, negative = inhibition) at 1uM” value of the first is lower: -16.6% for the first, 12.8% for the second.

First: O=C(c1ccc(Cl)c(F)c1F)N1CCOCC1
Second: CCOC(=O)N1CCN(C(=O)c2ccc3c(c2)N=C(CC)c2cc(C)ccc2S3)CC1
The “hERG current change (%, negative = inhibition) at 1uM” value of the first is lower: 5.71% for the first, 15.5% for the second.

Going from `COc1cc2ncnc(Nc3ccc4c(c3)OCO4)c2cc1OC` to `COc1cc(/C=N/NC(=Nc2ccc(C)cc2)c2nc3ccccc3s2)ccc1O`, the “hERG current change (%, negative = inhibition) at 1uM” value falls from 12.1% to -10.7%.

Compared with `CCOc1cc(C2C3=C(CCCC3=O)OC3=C2C(=O)CCC3)cc([N+](=O)[O-])c1O`, `CC1CCCCN1CCNC(=O)CN1C(=O)CSc2ccc(S(=O)(=O)N3CCCCC3)cc21` (stereo not shown) is lower in “hERG current change (%, negative = inhibition) at 1uM” value: 10.3% for the first, -4.31% for the second.

First: COc1ccc(-n2nccc2-c2nn(-c3cccc(OC)c3)c(=O)n(C)c2=O)cc1
Second: COc1cc(OC)cc(C(=O)N(CCCN2C(=O)c3cccc4cccc(c34)C2=O)c2cccc(OC)c2)c1
The “hERG current change (%, negative = inhibition) at 1uM” value of the first is higher: 14.9% for the first, 9.63% for the second.

Going from `CCN(CC)c1ccc(/C=N/c2sc3c(c2C#N)C2CCN3CC2)c(O)c1` to `CC(=O)N(C(C)=O)c1ncc2c([nH]c3ccccc32)c1C#N`, the “hERG current change (%, negative = inhibition) at 1uM” value falls from 27% to 15.6%.

First: Cl.c1ccc(CN2CCNCC2)nc1
Second: CSCC[C@H](N)C(=O)NCC1CCC(C(=O)N[C@@H](Cc2ccccc2)C(=O)O)CC1.Cl (stereo partly shown)
The “hERG current change (%, negative = inhibition) at 1uM” value of the first is higher: 16.6% for the first, 13.5% for the second.

Compared with `CCc1nnc(N/N=C/c2cc(C)c(C)cc2C)n1N`, `Cc1cccc(-n2c(O)cnc2Nc2nc(C)cc(C)n2)c1` is lower in “hERG current change (%, negative = inhibition) at 1uM” value: 10.9% for the first, 8.64% for the second.

Compared with `COc1cc(N=c2ssnc2Cl)cc(OC)c1`, `N#Cc1ccc(Oc2c(Cl)cncc2Cl)cc1` is higher in “hERG current change (%, negative = inhibition) at 1uM” value: 3.92% for the first, 7.35% for the second.

From article PMC4336329 (PLoS ONE, 2015)
